The supplement of paper PMC11417369
± gives the standard deviation of the averaged measurements. This is one part of the list.

Each sequence was assayed on PfAP2-EXP AP2 domain (GST-tagged) (assay: gcPBM binding intensity (ln(normalized median fluorescence intensity)); higher = stronger DNA binding).
Procedure, shortened: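 Binding intensity is defined as the maximum Masliner-normalised natural-log median intensity across replicate spots for either probe orientation. It was measured on an Agilent 4 × 180k array of primer-extended double-stranded 36-bp intergenic genomic probes and negative controls, to which GST-tagged P. falciparum DNA-binding domains made in E. coli were applied for 1 h in 1× PBS with 1% milk, 0.2 mg/ml BSA, 0.5% salmon testes DNA and 0.03% Triton X-100. Detection was by Alexa488 anti-GST antibody and scanning at 488 nm.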
“AAAAAAAAAAAACACGCATGTACATAAAAATAATCA [TGCATGCA_site142]” was tested, and the “gcPBM binding intensity (ln)” value was 8.85 ± 0.49.
In the case of “GGGTATAATAAAAGCACACACAAAGATATAAATATA [CACACA_site3308]”, the “gcPBM binding intensity (ln)” value is reported as 8.87 ± 0.38.
With “TTTTTGATGAAATATTATTTTCCTGACTTGGATTAA [CACACA_negctrl_site148]” the “gcPBM binding intensity (ln)” value was 8.16 ± 0.45.
With “AACCATAAATAATTATGTACTAAAAAAAATATATAT [XGTACX_site3415]” the “gcPBM binding intensity (ln)” value was 8.61 ± 0.27.
In the case of “TGGAGGATAGTTCACAGTACCCAGAAACTCTACGGA [XGTACX_site2560]”, the “gcPBM binding intensity (ln)” value is reported as 8.6 ± 0.41.
With “ATAATATATTTATGTTGTACAAGGAAAATTTTGAAA [XGTACX_site3472]” the “gcPBM binding intensity (ln)” value was 9.13 ± 0.35.
In the case of “GAAATGGAAAAATATACATGCGCATATAAATTAATA [TGCATGCA_site834]”, the “gcPBM binding intensity (ln)” value is reported as 8.71 ± 0.4.
In the case of “ATCATATGTATGCATACACACAAAAAATTATATATA [CACACA_site398]”, the “gcPBM binding intensity (ln)” value is reported as 8.59 ± 0.49.
“TATAATGATATAACAACACACATGTATGTATTATTA [CACACA_site230]” was tested, and the “gcPBM binding intensity (ln)” value was 8.22 ± 0.33.
For “TCTTATATATGCTTAAATATATTATATTTATTTGAA [CACACA_negctrl_site1757]”, the “gcPBM binding intensity (ln)” value was 8.29 ± 0.41.
“TTATTTATGATATATACACACTAACATTATTTATCC [CACACA_site6720]” was tested, and the “gcPBM binding intensity (ln)” value was 8.49 ± 0.4.
With “TGTATATATCAATGTACACACATGCGTATGTTCGTT [CACACA_site7654]” the “gcPBM binding intensity (ln)” value was 8.62 ± 0.28.
In the case of “TATAAAAAAAATTGCACACATATTATACAGGACGAC [CACACA_site701]”, the “gcPBM binding intensity (ln)” value is reported as 9.19 ± 0.23.
With “AAAATATATATAACTTGTACATATACATACGTATAT [XGTACX_site4570]” the “gcPBM binding intensity (ln)” value was 8.27 ± 0.26.
With “AATATATGGTTCCTTGATATTAAATTCAATTTAATG [CACACA_negctrl_site71]” the “gcPBM binding intensity (ln)” value was 8.41 ± 0.52.
For “TGTGTATATGTGCAAAGTACAAAAAAGAAATTATTT [XGTACX_site7569]”, the “gcPBM binding intensity (ln)” value was 8.66 ± 0.41.
“TAGTATTGTAAAAAAAAAAAAGAAAAAAAAAAAAAA [CACACA_negctrl_site977]” was tested, and the “gcPBM binding intensity (ln)” value was 8.24 ± 0.33.
In the case of “TAAATCTATATCATCACACACACATACATAAATATA [CACACA_site6228]”, the “gcPBM binding intensity (ln)” value is reported as 8.6 ± 0.61.
“TGGATGTTAATATAGTGTACATTTATAAGTCAGTAT [XGTACX_site2949]” was tested, and the “gcPBM binding intensity (ln)” value was 8.66 ± 0.35.
For “GTGGAAAAAAATAATTGTACACAATAATAAATATAT [XGTACX_site2414]”, the “gcPBM binding intensity (ln)” value was 8.58 ± 0.28.
In the case of “ATGTAATATATGCGGAAATATATTCACAAGACGTCA [CACACA_negctrl_site373]”, the “gcPBM binding intensity (ln)” value is reported as 8.63 ± 0.68.
With “GTCAAAAGTTTTTAAGGTACACTTATTTTATTATAA [XGTACX_site7004]” the “gcPBM binding intensity (ln)” value was 8.47 ± 0.26.
With “GAAAAAAAATCCAAGATGCACTATTATTACAAAAAT [GTGCAC_site9516]” the “gcPBM binding intensity (ln)” value was 8.69 ± 0.33.
In the case of “ACCTTTATTGTATGAACACACATAAGCTGATACATC [CACACA_site4028]”, the “gcPBM binding intensity (ln)” value is reported as 9.04 ± 0.44.
